Measured values as given in PubChem BioAssay AID1745853 (National Center for Advancing Translational Sciences (NCATS), 2022).
Where “and” joins values, the source holds several entries; their conditions need not be identical. Identical values can stand only once. The list shows a part of the results. Further columns of the screen follow, without active or inactive calls.

Tests used:
Experiment in all cases: Primary Screen for Target Class Profiling of Small Molecule Inhibitors of Methyltransferases
[1] = target: Glycine N-methyltransferase (Homo sapiens) (UniProt Q14749); conditions: purified enzyme, MTase-Glo SAH luminescence; measured here: GNMT inhibition; at 40 µM; stronger effect = lower value
In short: (§1)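 Each enzyme was reacted with SAM and its substrate, with compounds tested once at 40 uM; SAH formed was read by MTase-Glo luminescence.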

[2] = target: Guanidinoacetate N-methyltransferase (Homo sapiens) (UniProt Q14353); conditions: purified enzyme, MTase-Glo SAH luminescence; measured here: GAMT inhibition; at 40 µM; stronger effect = lower value
In short: as §1

[3] = target: Histamine N-methyltransferase (Homo sapiens) (UniProt P50135); conditions: purified enzyme, MTase-Glo SAH luminescence; measured here: HNMT inhibition; at 40 µM; stronger effect = lower value
In short: as §1

[4] = target: Nicotinamide N-methyltransferase (Homo sapiens) (UniProt P40261); conditions: purified enzyme, MTase-Glo SAH luminescence; measured here: NNMT inhibition; at 40 µM; stronger effect = lower value
In short: as §1

[5] = target: Phenylethanolamine N-methyltransferase (Homo sapiens) (UniProt P11086); conditions: purified enzyme, MTase-Glo SAH luminescence; measured here: PNMT inhibition; at 40 µM; stronger effect = lower value
In short: as §1
On the % scale 0 is the no-effect control and ±100 the full control effect.

Structure (SMILES)	activity change, negative = inhibition [1]	activity change, negative = inhibition [2]	activity change, negative = inhibition [3]	activity change, negative = inhibition [4]	activity change, negative = inhibition [5]
Cc1cccc2[nH]c(CN(C)C(=O)c3ccc(CCC(C)(C)O)cc3)nc12	-1.7%	-2.73%	-0.625%	-2.32%	1.43%
CNCCCC12CCC(c3ccccc31)c1ccccc12	-4.12% and -2.71%	1.09% and 9.71%	8.94% and 6.33%	-10.6%	3.09% and -3.77%
CCc1ccc(CN2C(=O)c3c(C(=O)OC)ncn3CC2(C)C(=O)NC2CCCC2)cc1 (stereo not given)	-4.42%	0.069%	2.3%	0.947%	-1.2%
NCC1CCN(c2nccc(-c3ccc4ccccc4c3)n2)CC1	-9.76%	4.42%	-6.74%	-14.4%	-3.1%
CCOC(=O)CCNc1cc(N2CCc3ccccc3CC2)nc(-c2cccnc2)n1	3.18%	4.63%	8.29%	-10.6%	1.05%
COc1ccc(N2C(=O)c3cc4ccc(OC)cc4n3CC2(C)C(=O)NC2CCCC2)c(OC)c1 (stereo not given)	-10.1%	0%	-2.73%	-19.6%	-4.29%
Cc1ccc(N2CCN(S(=O)(=O)c3cc4[nH]c(=O)[nH]c4cc3Cl)CC2)c(C)c1	14.4%	0%	13.2%	4.32%	7.01%
Cc1ccc(CN2C(=O)c3nc4ccccc4n3CC2(C)C(=O)NC2CCCC(C)C2C)cc1 (stereo not given)	-4.11%	4.78%	-2.45%	-11.6%	-2.37%
COc1ccc(OC)c(CN2C(=O)c3ccc(-c4ccco4)n3CC2(C)C(=O)NCc2ccccc2)c1 (stereo not given)	-1.57%	5.38%	-3.64%	-1.73%	-4.49%
C=CC1C(OC2OC(CO)C(O)C(O)C2O)OC=C(C(=O)OC)C1CC(=O)OCC1C(C)C(O)CC1C(CO)COC(=O)CC1C(C(=O)O)=COC(OC2OC(CO)C(O)C(O)C2O)/C1=C\C (stereo not given)	2.61%	-0.696%	12%	-13.2%	-8.07%
CCCn1c(=O)c2cc(F)ccc2n2c(SCC(=O)Nc3ccccc3OC)nnc12	1.36%	1.06%	13.5%	1.74%	8.9%
Cc1coc2c1C(=O)C(=O)c1c-2ccc2c1CCCC2(C)C	-50.6%	-9.19%	-17.7%	-27.1%	-36.5%
CCc1cc2c(cc3n2CC(C)(C(=O)NC2CCC(C)CC2)N(CCc2ccccc2)C3=O)s1 (stereo not given)	2.84%	0.891%	4.76%	-1.81%	1.3%
COc1ccc(C(=O)N2CCC(C3CCN(S(C)(=O)=O)CC3)C2)cc1OC (stereo not given)	-1.94%	2.23%	0.825%	-1.71%	15.2%
Cc1cn2cc(C(=O)N(C)CCO)cc(N[C@@H]3CCOc4cccc(C)c43)c2n1	-4.45%	-6.33%	2.37%	-17.5%	-12.6%
CN1C(=O)c2cc(C(=O)NCc3ccccc3Cl)nn2CC1(C)C(=O)NCc1ccccc1 (stereo not given)	8.56%	0%	5.64%	10.9%	3.59%
O=C(COc1ccc2c(-c3ccccc3)cc(=O)oc2c1)OCc1ccccc1	2.45%	1.34%	2.48%	-0.363%	-3.73%
C[C@@H]1CC[C@]2(C(=O)O)CC[C@]3(C)C(=CCC4[C@]5(C)C(CC[C@]43C)C(C)(C)[C@@H](O)[C@H](O)[C@@H]5O)C2[C@]1(C)O (stereo not given in full)	4.67%	11.4%	11.2%	-1.79%	8.41%
CC(C)(C)n1nc(-c2cccc3ccccc23)c2c(N)ncnc21		6.87%		-29%	4.47%
COCCN1Cc2nc(NCc3ccccc3)ccc2OCC1=O	-11.7%	-1.53%	-0.431%	1.23%	1.89%

Structure (SMILES)	activity change, negative = inhibition [1]	activity change, negative = inhibition [2]	activity change, negative = inhibition [3]	activity change, negative = inhibition [4]	activity change, negative = inhibition [5]
COc1cc(C(=O)O)ccc1NC(=O)C1NC(CC(C)(C)C)C(C#N)(c2ccc(Cl)cc2F)C1c1cccc(Cl)c1F (stereo not given)	-9.26%		-5.34%		
O=C(CCCc1nnc2n3nc(-c4ccccc4)nc3c3ccccc3n12)N1CCN(Cc2ccccc2)CC1	-4.98%	4.77%	-0.395%	5.49%	-6.65%
COc1ccc(CC(=O)N2Cc3ccccc3CC23CCCN(C(=O)CN)C3)cc1 (stereo not given)	-5.36%	-1.93%	-4.31%	-11.2%	-11.5%
CC1=CC(=O)C2C(C)(C)CCCC2(C)C12CCC1(COC(=O)C1)O2 (stereo not given)	1.2%	-4.69%	7.2%	-13.4%	0.849%
Cc1c(CC(=O)N(C)C(C)C)c2c(n1Cc1ccccc1F)CCCC2=O	-2.9%	-1.22%	-2.44%	-6.35%	-1.04%
COC[C@@H]1CN(c2ncccn2)C[C@H]1C(=O)NCc1ccccc1OC	-0.293%	-4.71%	-0.289%	-6.9%	3.89%
CC(C)COC(=O)c1ccc2c(c1)C1C=CCC1C(c1ccc(Cl)cc1)N2 (stereo not given)	-15.5%	-2.98%	-9.93%	-5.88%	-10.6%
COc1ccc(CN2C(=O)c3cc4sccc4n3CC2(C)C(=O)NC2CCCC2)cc1 (stereo not given)	-0.483%	0.291%	1.22%	-3.75%	-2.58%
CCN1CCN(c2nc3c(S(=O)(=O)c4ccccc4)nnn3c3ccc(Cl)cc23)CC1	2.24%	0%	-12.6%	2%	1.92%
COc1cccc(CNC(=O)Cn2c(=O)oc3cc(S(=O)(=O)N4CCCC4)ccc32)c1	-3.71%	1.02%	5.66%	1.44%	-4.25%
CCC(C)NC(=O)CSc1nnc2n(Cc3ccccc3)c(=O)c3ccc(C(=O)NC(C)C)cc3n12 (stereo not given)	-0.613%	4.94%	3.27%	2.86%	1.66%
COc1ccc(-c2nc(C3CC(=O)N(c4ccc(C)cc4)C3)no2)cn1 (stereo not given)	-3.16%	-3.13%	-0.669%	-5.53%	-0.091%
Cc1ccccc1CN1C(=O)c2ccc(-c3ccccc3)n2CC1(C)C(=O)NC1CCC(C)CC1 (stereo not given)	6.1%	0.122%	2.13%	3.56%	2.2%
O=C(OCc1ccccc1)N1CCOCC12CCN(Cc1c[nH]c3ccccc13)CC2	-9.24%	-4.92%	-57.8%	-18.4%	-13.1%
Cc1c(Cl)cccc1N1C(=O)c2cc3sccc3n2CC1(C)C(=O)NC1CCCCC1 (stereo not given)	2.2%	0%	3.69%	2.49%	1.24%
Cc1cc2[nH]c(=O)[nH]c2cc1S(=O)(=O)N1CCN(c2cccc(Cl)c2)CC1	1.66%	1.29%	7.38%	-7.73%	4.32%
N#C/C(=C\c1ccc(O)c(O)c1)C(=O)NCCc1ccccc1	-12.5%	7.88%	0.169%	-41.8%	8.67%
CC1[C@@H](O)[C@@H](O)C2[C@]3(C)C(C[C@H]4OC(=O)[C@H](O)[C@]1(O)[C@@]24C)C(C)(O)C[C@H](O)[C@H]3O (stereo not given in full)	1.41%	16.3%	12%	4.09%	7.61%
COc1ccc(CCc2nc3nccc(-c4ccncc4)n3n2)cc1	-14.9%	-12.6%	-6.12%	-16%	-9.22%
CCCn1c(=O)c2ccc(C(=O)NCC(C)C)cc2n2c(=O)n(CC(=O)Nc3cc(C)cc(C)c3)nc12	0.053%	4.6%	-0.346%	-0.631%	1.98%

Structure (SMILES)	activity change, negative = inhibition [1]	activity change, negative = inhibition [2]	activity change, negative = inhibition [3]	activity change, negative = inhibition [4]	activity change, negative = inhibition [5]
Cc1cccc(CN2CCCC(C(=O)Nc3cccc(-n4cccn4)c3)C2)n1 (stereo not given)	-5.19%	0.267%	-3.7%	0.533%	3.46%
COc1ccc(S(=O)(=O)NC[C@H]2Cn3c(-c4ccc(Cl)cc4)cnc3CO2)cc1	-72.5%	-15.3%	-27.7%	-33.1%	-10.8%
CCNC(=O)O[C@H]1COCCN(c2nc3ccccc3o2)C1	-2.1%	0.764%	-1.04%	-5.16%	-0.018%
O=c1cc(-c2ccccc2)[nH]c2nc(Cl)ccc12	-3.57%	3.6%	0.376%	-6.05%	5.34%
CC(=O)N1CCC(C(=O)N2CCCC(c3nc4ncccc4[nH]3)C2)CC1 (stereo not given)	1.78%	-3.11%	1.59%	-3.84%	-13.7%
O=c1[nH]c(=O)c2nc3ccccc3nc2[nH]1	-9.88%	5.17%	-0.265%	-3.33%	7.13%
O=C(CCn1cncn1)N1CCC2(CCC(=O)N(CCc3ccncc3)C2)CC1	-0.995%	-2.43%	-0.713%	-2.23%	-0.793%
COc1c(F)cccc1C(=O)N1C[C@@H](C)CC[C@H]1CNc1ccc(Br)cn1	0.411%	7.09%	9.96%	-12.7%	-1.66%
O=C(COC(=O)C(Cc1c[nH]c2ccccc12)NC(=O)c1ccc(Br)cc1)c1ccccc1 (stereo not given)	10.8%	0%	8.59%	-4.31%	3.25%
CCCCNc1nc2c(-c3cccc(Br)c3)nnn2c2ccccc12	-0.349%	2.79%	2.19%	6.22%	-3.64%
COc1ccc(CNC(=O)CN(C)S(=O)(=O)c2ccc3[nH]c4c(c3c2)CCCC4)cc1	-1.22%	0.253%	-2.64%	-6.47%	0.53%
CC(=O)O[C@H]1C[C@@]2(C)[C@@H](C[C@@H](O)[C@H]3[C@@]4(C)CC[C@@H](O)[C@@H](C)[C@@H]4CC[C@@]32C)/C1=C(\CCC=C(C)C)C(=O)O	1.54%	1.53%	13.4%	-9.84%	4.35%
O=C1CC(c2noc(Cc3ccc(F)cc3)n2)CN1c1ccc(F)cc1 (stereo not given)	-1.55%	1.57%	2.62%	-3.83%	10.5%
COc1ccc(CNc2cc3c(cn2)CN(C)CCN3)cc1OC	-7.65%	-6.07%	-89.3%	-20.1%	-8.76%
O=C(CCc1c[nH]c2ccccc12)NC1CCN(c2ccc(=O)[nH]n2)CC1	-3.04%	-0.43%	-1.97%	-6.87%	-14%
COc1ccc(OC)c2c1cc1n2CC(C)(C(=O)NC2CCCCC2)N(Cc2ccccn2)C1=O (stereo not given)	-31.4%	-8.7%	-1.42%	-8.39%	-78.8%
O=C(Nc1ccc(S(=O)(=O)C(F)(F)F)cc1)C1=CCN(c2ncccc2C(F)(F)F)CC1	-1.17%	-7.57%	-3.78%	-19.7%	-14.4%
CC1(C)CC[C@]2(C(=O)O[C@@H]3O[C@H](CO)[C@@H](O)[C@H](O)[C@H]3O)CC[C@]3(C)C(=CCC4[C@@]5(C)CC[C@H](OC6OC(C(=O)O)C(OC7OC(CO)C(O)C(O)C7O)C(O)C6O)C(C)(C)C5CC[C@]43C)C2C1 (stereo not given in full)	2.81%	6.16%	8.95%	-9.35%	-5.01%
